# From publication PMC4336329 (PLoS ONE, 2015)
# Among all 310,000 compounds or so, about 2,200 (0.71%) showed an effect of 50% or more. The effect is printed as a negative number. The list shows a part of the results.
# Biological target: human ether-à-go-go-related gene (hERG) potassium channel (human, UniProt Q12809)
# Experiment: primary screen, population patch clamp on CHO cells stably expressing hERG
# human ether-à-go-go-related gene (hERG) potassium channel, sequence (Q12809 whole entry, looked up): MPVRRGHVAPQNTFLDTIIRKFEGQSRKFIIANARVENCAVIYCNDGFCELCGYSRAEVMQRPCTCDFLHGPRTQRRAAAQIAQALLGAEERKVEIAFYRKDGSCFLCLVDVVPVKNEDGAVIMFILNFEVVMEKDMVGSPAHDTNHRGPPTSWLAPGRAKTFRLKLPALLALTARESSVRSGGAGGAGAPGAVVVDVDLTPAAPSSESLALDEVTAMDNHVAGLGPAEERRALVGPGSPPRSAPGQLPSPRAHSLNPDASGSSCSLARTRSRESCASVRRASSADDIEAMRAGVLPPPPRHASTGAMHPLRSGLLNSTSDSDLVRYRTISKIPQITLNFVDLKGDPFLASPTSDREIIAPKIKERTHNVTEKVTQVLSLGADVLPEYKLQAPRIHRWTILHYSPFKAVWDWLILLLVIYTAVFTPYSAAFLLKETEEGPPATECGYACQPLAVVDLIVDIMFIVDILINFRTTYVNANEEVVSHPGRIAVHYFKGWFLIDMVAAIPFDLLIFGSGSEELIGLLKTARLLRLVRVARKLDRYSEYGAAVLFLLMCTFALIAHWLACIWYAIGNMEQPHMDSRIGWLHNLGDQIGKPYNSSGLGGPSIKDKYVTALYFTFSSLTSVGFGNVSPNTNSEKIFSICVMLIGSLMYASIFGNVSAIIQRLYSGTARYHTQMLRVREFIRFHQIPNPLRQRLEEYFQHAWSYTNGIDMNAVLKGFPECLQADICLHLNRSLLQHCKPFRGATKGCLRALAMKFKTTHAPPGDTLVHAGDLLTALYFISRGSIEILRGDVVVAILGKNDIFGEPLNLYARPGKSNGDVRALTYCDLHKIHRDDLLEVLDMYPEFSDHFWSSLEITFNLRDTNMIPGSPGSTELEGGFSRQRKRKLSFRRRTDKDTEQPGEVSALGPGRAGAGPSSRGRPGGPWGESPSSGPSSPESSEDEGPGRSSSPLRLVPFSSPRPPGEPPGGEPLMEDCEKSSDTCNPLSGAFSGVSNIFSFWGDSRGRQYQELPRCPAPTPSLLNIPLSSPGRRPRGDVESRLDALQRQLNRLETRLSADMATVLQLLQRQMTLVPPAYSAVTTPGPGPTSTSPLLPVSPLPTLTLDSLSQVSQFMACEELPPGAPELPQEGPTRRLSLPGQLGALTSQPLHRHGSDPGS
row,SMILES,"hERG current change (%, negative = inhibition) at 1uM [%]"
1,COc1cc(CNCCCN2CCOCC2)cc(Br)c1OCC(=O)N1CCCCC1.Cl,11.5
2,O=C1CCC(C(=O)Nc2ccccc2N2CCOCC2)=NN1,14.9
3,CC1(C)Cc2c(C#N)c(SCc3nc4ccccc4[nH]3)nc(N3CCOCC3)c2CO1,11.2
4,Nc1c(C(=O)NCc2ccco2)nnn1Cc1ccccc1,17.2
5,CCC(C)(C)NC(=O)Cc1ccc(F)cc1,23.4
6,COc1ccc(S(=O)(=O)NCc2ccncc2)cc1OC,-0.893
7,Cc1ccsc1C(=O)OCC(=O)c1cc(C)n(CC2CCCO2)c1C (centres unmarked),8.76
8,CCn1c(-c2cc(C3CC3)nc3ccccc23)n[nH]c1=S,15.8
9,CCCCn1nc(NC(=O)c2cccs2)c2cc3cc(OC)ccc3nc21,9.6
10,CCOC(=O)CSc1nnc(NC(=O)CN2CCCCC2)s1,11.9
11,CCCc1cc(=O)[nH]c(SCC(=O)N2CCCC2=O)n1,15.4
12,Cn1c(=O)c2c(nc(N3CCOCC3)n2C)n(C)c1=O,-1.83
13,COc1ccc(C(CC(=O)N2CCCCC2)c2c(O)cc(OC)cc2OC)cc1 (centres unmarked),13.5
14,CC1=CC(C)(C)n2c(O)c(N=N)c3cc(C)cc1c32,6.62
15,CCN(CC(=O)NCc1cccs1)C(=O)CN(C)S(=O)(=O)c1ccc(C)cc1,5.94
16,COc1ccc2oc(C(=O)OCC(=O)N3CCN(S(=O)(=O)c4ccc(C)cc4)CC3)c(C)c2c1,16.1
17,O=C(Cn1nc2sc3ccccc3n2c(=O)c1=O)c1ccc(Cl)cc1,16.3
18,Cc1cc(C(=O)OCC(=O)N2CCC(c3ccccc3)=N2)ccc1[N+](=O)[O-],11.2
19,COc1ccc(CCNC(=O)[C@@H]2C[C@H]2c2ccccc2)cc1OC,5.21
20,O=C1C=C(c2ccc3ccccc3c2)C[C@@H](c2ccc(Cl)cc2)C1,10

row,SMILES,"hERG current change (%, negative = inhibition) at 1uM [%]"
1,CCOC(=O)Cn1c(=NC(=O)CSC(C)=O)sc2ccccc21,-14
2,Cn1cccc1C(=O)OCc1ccc(C(C)(C)C)cc1,6.82
3,O=C(Cc1ccccc1)NCCc1cn2ccsc2n1,20.5
4,CC(C)Cc1nnc(NC(=O)CCC(=O)N2CCN(Cc3ccc(F)cc3)CC2)s1,10
5,O=C(COc1ccccc1Cl)NC(=S)Nc1ccc(CN2CCOCC2)cc1,15.7
6,COc1ccc(NC(=O)NC(C(F)(F)F)C(F)(F)F)cc1,16.6
7,CCn1c(SCC(=O)OC)nc2sc3c(c2c1=O)CCC3,-0.13
8,CN1CCN(CCCc2c3c(cc4c2CCC4)CCC3)CC1.Cl,7.12
9,COc1cccc(C(=O)N2CCN(C(=O)C3CCCO3)CC2)c1 (centres unmarked),17.1
10,NC(=O)Cn1cnc2c(nnn2-c2ccc(F)cc2)c1=O,5.43
11,CCN(c1ccccc1)S(=O)(=O)c1ccc(F)cc1C,-0.512
12,COc1ccc(/C=N/NC(=O)c2ccncc2)cc1Cn1nc([N+](=O)[O-])c(Br)c1C,9.33
13,CN1CCN(/N=C/c2ccc(Br)cc2)CC1.Cl,0.327
14,CC(C)[C@H](NC(=O)C1CCN(S(=O)(=O)c2ccccc2)CC1)C(=O)NCc1ccccc1,14.4
15,COc1cc(CN2CCNC(=O)C2CC(=O)NC2CCCC2)cc(OC)c1 (centres unmarked),-11.2
16,COc1ccc(C(=O)NC(=S)NCc2cccnc2)cc1Cl,14
17,O=C(O)c1ccc(CN(c2ccccn2)S(=O)(=O)c2ccccc2)cc1,20
18,CCC(=O)Nc1nc(-c2ccc3c(c2)CC(C)N3S(C)(=O)=O)cs1 (centres unmarked),8.47
19,O=C(/C=C/c1ccco1)NC(=S)Nc1ccccc1Br,18.2
20,CC(OC(=O)/C=C/c1ccc(Br)cc1)C(=O)N1CCOCC1 (centres unmarked),12.9

row,SMILES,"hERG current change (%, negative = inhibition) at 1uM [%]"
1,CCOC(=O)c1ccc(NC(=O)c2cn(CCC#N)nc2-c2ccc3c(c2)OCCO3)cc1,-0.0387
2,CCOc1ccc(/C=C/C(=O)NC2CCCCC2)cc1,6.98
3,Cc1c(C(=O)NC2CCCc3ccccc32)oc2ccc(S(=O)(=O)N3CCCC3)cc12 (centres unmarked),17.2
4,CCCCN(Cc1ccccc1)S(=O)(=O)c1c(N)n(C)c(=O)n(C)c1=O,7.36
5,CS(=O)(=O)N1N=C(c2ccco2)CC1c1ccccc1 (centres unmarked),12.5
6,Cc1ccccc1CNC(=O)Cc1ccccc1[N+](=O)[O-],0.014
7,CNC(=S)NNC(=O)Cc1ccccc1,-2.43
8,Cc1cc(C(F)(F)F)n(-c2nc(C(=O)N/N=C/c3ccc(F)cc3)cs2)n1,-0.351
9,Cc1ccc(NCCNc2ccc(C)cc2)cc1,2.52
10,CCOc1ccc(-n2cnnn2)cc1S(=O)(=O)N1CCCCC1,7.17
11,O=C1COc2ccc(C(=O)COC(=O)C3CC(O)CN3S(=O)(=O)c3ccc(Cl)cc3)cc2N1 (centres unmarked),8.6
12,CCOc1cc(CNc2ccc(Br)cc2)cc(Br)c1OCC(=O)NC(C)(C)C,7.31
13,O=C(CSc1ncnc2c(-c3ccc(Cl)cc3)nsc12)c1ccccc1,7.86
14,CCN(C(=O)Cc1cccs1)c1nnc(-c2cc(OC)c(OC)c(OC)c2)s1,7.74
15,O=S(=O)(Nc1nc2ccccc2[nH]1)c1ccccc1,-3.92
16,CC(C)CCOP(=O)(c1ccc(N(C)C)cc1)C(O)c1ccccc1 (centres unmarked),17.5
17,CC1CCc2c(sc3nc(C(C)(C)C)nc(N4CCN(C(=O)CCl)CC4)c23)C1 (centres unmarked),9.24
18,C=CCNC(=S)Nc1ccc2cn[nH]c2c1,1.68
19,CC(C)CCn1c(=O)c2ccccc2n2c(CN(C)Cc3ccccc3)nnc12,-6.25
